Measurements from PubChem BioAssay AID894 (National Center for Advancing Translational Sciences (NCATS), 2007).
Screen size: about 150,000 compounds; about 6,500 (4.3%) were called active. This list was built around the results that the source calls inconclusive (neither active nor inactive); the mix of calls is not that of the screen. Calls come from the whole dose curve; as a rule, active = well fitted inhibition curve with a large enough effect (not every such curve was filed as active); inconclusive = small, poorly fitted or top-dose-only effect, or another doubt; inactive = no such curve, though single readings can be large or run the other way. Potencies of inconclusive entries are left out as doubtful fits.

target: 15-hydroxyprostaglandin dehydrogenase [NAD(+)] (Homo sapiens) (UniProt P15428); assay: qHTS Assay for Inhibitors of HPGD (15-Hydroxyprostaglandin Dehydrogenase); conditions: purified HPGD, NADH fluorescence kinetic, PGE2 substrate; activity change, negative = inhibition: stronger effect = lower value
Outline: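 20 nM HPGD preincubated 15 min at room temperature with compound in 50 mM Tris-HCl pH 8, 0.01% Tween 20. Started with 1 mM NAD+ and 30 uM prostaglandin E2; NADH fluorescence (360/450 nm) read 5 times over 30-s intervals, last minus first.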
% is set by controls: 0 for no effect and ±100 for the full control effect; potency is the fitted concentration of half-maximal effect; tags give direction and shape of the fitted curve.

UniProt P15428, sequence (P15428 whole entry, looked up): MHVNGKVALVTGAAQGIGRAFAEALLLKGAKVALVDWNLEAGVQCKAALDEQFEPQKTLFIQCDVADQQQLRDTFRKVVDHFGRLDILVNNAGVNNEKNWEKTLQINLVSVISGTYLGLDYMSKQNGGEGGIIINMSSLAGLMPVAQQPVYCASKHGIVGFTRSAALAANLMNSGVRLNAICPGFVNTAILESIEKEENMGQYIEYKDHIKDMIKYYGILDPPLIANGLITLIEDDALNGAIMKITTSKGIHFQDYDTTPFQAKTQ

SMILES | activity change, negative = inhibition | Potency
CCCC(CCC)C(=O)Nc1ccncc1 | inactive: 5.49% | –
CN(C)c1ccc(C(CC(=O)O)NC(=O)c2ccc(Cl)cc2)cc1 (stereo unspecified) | inactive: -11.5% | –
Cc1cc(NCCN2CCCCC2)n2c(nc3ccccc32)c1C#N | – | inconclusive [inhibitor, partial curve]
CCCc1cc(C(=O)Nc2sc(C(C)=O)c(C)c2C(=O)OCC)no1 | – | inconclusive [inhibitor, partial curve]
COc1cc(OC)c2c(OC)c(-c3ccc4c(c3)OCO4)c(=O)oc2c1 | – | inconclusive [inhibitor, single point]
C=CCn1cc(/C=N/Nc2nc3ccccc3[nH]2)c2ccccc21 | – | inconclusive [inhibitor, single point]
CCN(CC)C(=O)CSC1=Nc2ccccc2C2=NC(c3ccccc3)C(=O)N12 (stereo unspecified) | – | inconclusive [inhibitor, partial curve]
COCC(C)NC(=O)c1ccc(-n2nc(C(F)(F)F)cc2-c2cccs2)cc1 (stereo unspecified) | – | inconclusive [inhibitor, single point]
CCOC(=O)CNC(=O)CSc1ncnc2c1cnn2-c1ccccc1 | inactive: -7.58% | –
COC(=O)C1=C(C(=O)OC)[C@@H]2N(Cc3ccccc3)c3ccccc3[C@@]23C[C@@H](C(=O)OC)N(S(=O)(=O)c2c(C)noc2C)C3=N1 | inactive: -2.91% | –
CN(CCc1ccc(Cl)c(Cl)c1)C[C@@H](O)COc1ccc(NS(C)(=O)=O)cc1 | inactive: -1.85% | –
Cc1nc(N2CCOCC2)c2nc(-c3ccccc3)n(CCN(C)C)c2n1 | – | inconclusive [inhibitor, partial curve]
CC(C)N(Cc1nc(-c2ccccc2)no1)C(=O)Cc1ccccc1 | inactive: -9.24% | –
COc1ccc(-c2nn(-c3ccccc3)cc2CO)cc1OC | – | inconclusive [inhibitor, partial curve]
Cc1c(C)n(C)c2ccc(C(=O)NCc3cccs3)cc12 | – | inconclusive [inhibitor, partial curve, poor fit]
O=C(Cn1cnc2sc(-c3ccccc3)cc2c1=O)NCCc1ccccc1 | – | inconclusive [inhibitor, partial curve]
CSCC[C@H](NC(=O)c1nn(C)c(=O)c2ccccc12)c1nc2ccccc2[nH]1 | inactive: -3.73% | –
Cc1cccc(C)c1NC(=O)CNc1ncnc2sc(C)c(C)c12 | inactive: -2.41% | –
COc1ccc(C(=O)COC(=O)c2ccc(NC(C)=O)cc2)cc1[N+](=O)[O-] | – | inconclusive [inhibitor, partial curve]
COc1ccc(OC)c(NC(=S)NN2CCOCC2)c1 | inactive: -3.6% | –
CCCCn1nc2cc(C(=O)NCc3ccc4c(c3)OCO4)ccc2c1OCC | – | inconclusive [inhibitor, single point]
Cc1ccc(CN2C(=O)C3CCCN3c3ccc(S(=O)(=O)N4CCOCC4)cc32)cc1 (stereo unspecified) | inactive: -12.4% | –
Nc1cccc2c1C(=O)N(C(=O)c1ccc(Cl)c(S(=O)(=O)N3CCCCCC3)c1)C2=O | – | inconclusive [inhibitor, partial curve]

SMILES | activity change, negative = inhibition | Potency
O=c1c(Cl)c(Cl)cnn1Cc1ccccc1Cl | inactive: -14.5% | –
CC(OC(=O)c1nsc(Cl)c1Cl)C(=O)NCc1ccc2c(c1)OCO2 (stereo unspecified) | – | inconclusive [inhibitor, partial curve]
CC(C)Cc1cc(C(=O)Nc2sc3c(c2C#N)CCCC3)no1 | – | active: 28.2 µM
Cn1cnnc1Sc1ccc(C(=O)OCC(=O)Nc2ccccc2)cc1[N+](=O)[O-] | inactive: -12.8% | –
COc1cc(S(=O)(=O)N2CCOCC2)ccc1NC(=O)CN1c2cccc3cccc(c23)S1(=O)=O | – | inconclusive [inhibitor, partial curve]
CCOC(=O)NCc1ccc2c(c1)cc(C)n2C | inactive: -12.6% | –
O=C(N1CCOCC1)N1CCN(C(c2ccccc2)c2ccccc2)CC1 | inactive: -7.11% | –
COc1cccc(-c2cc(C(F)(F)F)n3ncc(S(=O)(=O)c4ccccc4)c3n2)c1 | – | inconclusive [inhibitor, partial curve]
NC(CSS(=O)(=O)O)=NCCC12CC3CC(CC(O)(C3)C1)C2 | – | inconclusive [inhibitor, partial curve]
O=C(c1cc(-c2ccccn2)nc2c(Cl)cccc12)N1CCN(S(=O)(=O)c2ccccc2)CC1 | inactive: -15.6% | –
COc1cc(OC)c(NC(=S)Nc2cccc(C)c2)cc1Cl | – | active: 15.8 µM
Cc1cc(C(=O)Nc2ccccc2)oc1C | – | inconclusive [inhibitor, partial curve]
COc1ccccc1-c1nc(C#N)c(NCc2ccc(F)cc2)o1 | – | inconclusive [inhibitor, partial curve]
N#CC1=C(N)Oc2cc(O)ccc2C1c1cccs1 (stereo unspecified) | inactive: -11.2% | –
Cc1ccc(/C=N/n2c(-c3cccs3)n[nH]c2=S)cc1 | – | active: 4.47 µM
Cn1c(CSc2nc3ccccc3s2)nc2ccccc21 | – | inconclusive [inhibitor, partial curve]
Cc1ccc(Cn2c(=O)c3ccccc3n3c(SCC(=O)N4CCCCC4C)nnc23)cc1 (stereo unspecified) | – | inconclusive [inhibitor, partial curve]
CCCCCCC(=O)N(O)C1CC(=O)N(c2ccc(Br)cc2)C1=O (stereo unspecified) | – | active: 7.08 µM
COc1ccc(-c2nc3ccccc3c(=O)n2CCOc2ccc(C)cc2C)cc1 | – | inconclusive [inhibitor, partial curve]
COc1cc(/C=N/Nc2nc3c(c(=O)n(C)c(=O)n3C)n2Cc2ccccc2)ccc1OC(=O)c1ccco1 | – | inconclusive [inhibitor, single point]
OC(c1cccs1)(c1cccs1)C1C[N+]2(CF)CCC1CC2 (stereo unspecified) | inactive: -4.81% | –
CCCN1CCC(=NNC(=O)CSc2cc(C)c(Br)cc2C)CC1 | – | active: 14.1 µM
NS(=O)(=O)c1ccc(N=Nc2ccc[nH]c2=O)cc1 | – | inconclusive [inhibitor, single point]
